Test results published in the RNAGym collection of RNA variant scans (doi:10.1093/nar/gkz1192).
The source gives no read counts; variants with many changes may rest on few reads.

B1: CPEB3 Ribozyme (parent)
chain: UAACAGGGGGCCACAGCAGAAGCGUUCACGUCGCAGCCCCUGUCAGAUUCUGGUGAAUCUGCGAAUUCUGCUGUAUAUCUC

Variants of: B1
Test: self-cleavage, relative activity (ratio to wild type); higher = more cleavage; in vitro, sequencing
Procedure, shortened: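 Relative activity was defined as the cleaved/total read fraction for a variant divided by the same fraction for the unmutated ribozyme. CPEB3 self-cleaving ribozyme libraries were made by rounds of error-prone PCR, barcoded, and transcribed in vitro with T7 RNA polymerase for 5 hours at 37°C, and cleavage ran through transcription plus a 15 min DNase I step before EDTA. Illumina sequencing of template-switched reverse transcripts gave the reads, and DNA sequencing mapped the barcodes. Averages come from three batches, using variants with at least 5 reads.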

Variant	self-cleavage
A45G U72C U80A	1.17
A47C U69A U74C A75G	0.19
A45U U48A U72A U78C	0.09
A47G U51C A57U U80A	0.19
U48C U54C U60C U67A U80A	0.1
A45U A56G U58C	0.39
A47G U49C U54A A56U	0.21
U48A U58A U67C U78C	0.39
A47G U54C U78C	0.68
A45U U54C A56G	0.25
U48C A56G U80C	0.38
U49C A56G U66C U72C	0.36
U48C U51C U78C	0.32
A47U U51A A77U	0.54
A45G U51C U74A	1.04
A45G U60A U67C A75G	0.21
A45U U49C U51A	0.1
A45U A57U U66A	0.12
A45G U72C C79A	1.19
A45U U54A U80C	0.66
A47U A57G U58A U66C	0.23
A47G A56G U60C	0.21
A45G U58C U72C	0.21
A45U G53A U60C U72C	0.54

Variant	self-cleavage
U49A U60C C68U U69A U74C	0.27
A45U U49C A64G G73A	0.06
G46A G53U U80C	0.65
A45G U66C U76A	0.27
A47U U51C A75G	0.37
U48A U51C U58A U69A	0.14
A47U A64G U67C	0.17
U48C U60G U67C	0.2
U48C U54C U58C U72A	0.14
U49A G61A A65G	0.22
A45U A65U U66C	0.18
A45G U60C C71A	0.43
G46A U54C U72A	0.18
U49A U51C A56G	0.82
U48C U54A A64G U67C U78G	0.1
A45U C62U U69C	0.18
U48C U67A U74C	0.44
G46A A47G A57G U58C C62A	0
U48C U74G A75U	0.64
A47G A56G U67A	0.46
U48C U51C A77G	0.69
U49A A56U U60C U67C U72C U80C	0.19
U49A U74G U78G	1.22
A45G U60G U74A	0.59

Variant	self-cleavage
A45G U78C C79U	0.94
A47G U48C U49C C59A U67C	0.11
A45U U58A U66C	0.28
G46U A64G A65G U80C	0.24
G46U A47G U49G C62U A65G	0.08
U48C U72A A77C	0.42
A47G U51A A57G	0.2
U48C G52A U54C	0.55
A45G U69C U76A	0.56
G46A U76C U80C	0.16
U49A U69C U74C U80C	0.32
A47G U51A A75U	1.17
A47G U51A U72C	1.24
A45G U60C U74C A75G	1.28
U49C A57G A64G U72C	0.12
A47G U69A A75G	0.36
A45U U49A A57G U58A	0.11
A47U C62U U66C U78C	0.1
A45U U51C C62G	0.15
A45U U78C U80A	0.54
U48A A56G C68U	0.17
U48C C62U A65G	0.15
A45U U49G C81U	0.18
A45G U69C U74A A77G	0.58

Variant	self-cleavage
U48C A57C U58C U69A	0.23
U48G A57G U72G U80C	0.77
A47G U58A C71U	0.27
U49A A75U U78C	0.8
A45U U60C G61A	0.15
A45G U66C C79U	0.34
A45U U54A U58C U78C	0.12
U49A G70U U72A	0.1
A45U U51A U54C	0.36
U48C U54C G63U A77G	0.44
A45U U72C U76C	0.58
A47G A64U U69A	0.23
A47C U54A C62A U67A U69A	0.1
U48C C50A U72A	0.22
A47U A57U U60C U67A	0.1
U49C A56G A64G	1.06
A47G U60A A65G U72C	0.14
A45G U58A U67C U72C	0.11
U49A U54G U60C	0.11
A45U A47G G61A	0.45
A45U G55A U69C	0.15
A47U U60A U67C U76C	0.18
A45U A47C U58A U60A	0.51
A45G U66C A77G	0.36

Variant	self-cleavage
A45U U49C C71A	0.15
A47U A57G U76C C79A	0.17
U49A U51A U60C	0.2
A45U U49C A77G	0.39
U48C U72G U76C	0.32
A47U A57G U58C U60G	0
U48A U49C U72C	0.19
U48C A57U G61A	0.18
G46U A64G A65U	0.16
U49A U60C U66A	0.14
A47G U66C U69C	0.3
A45U U58C G63A A64G	0.17
G46U U67A U80C	0.14
U48C U51A U67G	0.17
A45U U69A U76C	0.32
U49A A57U U78A	0.46
A45U U72A U78C	0.39
A45U U48C U51A U54C U78C	0.12
A45U U48C C59U U60A U67C C81U	0.19
A45U U51A C71U	0.35
U48C U69C A75U	0.35
A45G U51C U67C A77G	0.4
A45G U54G A56U	0.27
U48G U72C A77G	0.25

Variant	self-cleavage
A47U U60A A64G	0.15
A45U U51A U72C U80C	0.66
A45G U66C U74A U78G	0.49
U49C A57G U58A	0.44
A47G U54A U66C C79G	0.73
A45G U54C U69C U78C	0.28
U48C A65G U67A U74C U78C	0.26
A47G A65G U67C U76C	0.13
A47G U49A U60A U78A	0.27
A47G G53C A65G A77U	0.59
A47G U60C U69A U78A	0.24
A45G U69C C79A	0.61
A45U U51C U54C U69C	0.2
U48C A57G U72A	0.75
A47G A65G U69A	0.25
A47G U51A U67C U76C	0.48
A45U U60A A64G	0.72
U48C A57U A64U A65U	0.19
A47G U48C A57G	1.18
U48A A56G U60C	0.11
U48C G52U A65G U78C	0.2
U49A G63C U67C U78C	0.5
A45U U54A U78A	0.48
U48C A56U U72C	0.27

Variant	self-cleavage
A47G U51A A56G U72C	0.64
A45U U49C G61A	0.05
A45U U51A U58C U74A	0.1
A47G U49C U74A	0.34
U49C A57G G70C U72C	0.15
G46A A47G U51C U66C U69A	0.1
U48C U51C A64C	0.19
U48C A57G U60A U72A	0.25
A47U U60C A77G U80G	0.09
U48C G55A A77U	0.25
A47G U69C U78C	0.63
A45U U54C A65G	0.2
A45U A64G U74C	0.35
A45U U48C U67A U72C	0.05
A47G A56G G63U U80C	1.1
G46U U48C U60C U66C U78C	0.05
U48C U51C A56U U60A U80A	0.12
A45G U76A A77U	0.74
G46A G52A G55C	0.15
A47G A56G U78C	0.49
A47U U54C A64U	0.54
A45G U60C U67C A75G	0.17
A47G U54C A64U U67C U72C	0.17
